Test [1] deals with T1, SYCE2 core (amino-acids 57-165) (human, UniProt Q6PIF2 57-165).
T1 construct: SYCE2, human, core, residues 57-165; also called SYCE2 structural core; source: E. coli BL21 (DE3), co-expressed with TEX12, purified (Ni-NTA, amylose, ion exchange, SEC); not shown: MBP, N-terminal, cleaved
T1 sequence (looked up): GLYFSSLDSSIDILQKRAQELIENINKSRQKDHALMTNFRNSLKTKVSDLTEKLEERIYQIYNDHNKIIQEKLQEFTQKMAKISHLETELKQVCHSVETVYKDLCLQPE
The experiment in a line: SEC-SAXS; co-purified complexes at >5 mg/ml on Superdex 200 Increase 10/300 GL in 20 mM Tris pH 8.0, 150 mM KCl; both purified.

The target in test [2] is T2, SYCE2 core ΔS2C (amino-acids 57-154) (human, UniProt Q6PIF2 57-154).
T2 construct: SYCE2, human, ΔS2C, residues 57-154; source: E. coli BL21 (DE3), co-expressed with TEX12, purified (Ni-NTA, amylose, ion exchange, SEC); not shown: MBP, N-terminal, cleaved
T2 sequence (looked up): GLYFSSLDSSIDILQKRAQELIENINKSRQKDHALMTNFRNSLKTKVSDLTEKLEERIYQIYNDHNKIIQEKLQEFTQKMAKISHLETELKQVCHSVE
The test is described as above.

The target in test [3] is T1, SYCE2 core (amino-acids 57-165). The experiment in a line: crystal structure; SYCE2-TEX12 core ΔCtip 2:2 complex, 33 mg/ml, 35 % MPD, 20°C; space group P21; PDB 6R17; both purified.
Test [4] shares this target. Put plainly: crystal structure; SYCE2-TEX12 core ΔCtip 4:4 assembly, 33 mg/ml, 0.1 M sodium acetate pH 4.0, 65 % MPD, 20°C; space group P21212, 2:2 heterotetramer in the asymmetric unit; PDB 6YQF; both purified.
Test [5] deals with SYCE2-TEX12 core V149E V153E V156E L160E 2:2 complex (human) (UniProt Q6PIF2+Q9BXU0). Put plainly: SEC-MALS; co-purified complexes at >1 mg/ml on Superdex 200 Increase 10/300 GL in 20 mM Tris pH 8.0, 150 mM KCl, 2 mM DTT; in Fig. 1 core at 200 uM and full-length at 100 uM (4 mg/ml); both purified.
Test [6] has as its target SYCE2-TEX12 core ΔS2C MBP-fusion 2:2 complex (human) (UniProt Q6PIF2+Q9BXU0). Described as above.
Test [7] deals with SYCE2-TEX12 core ΔS2C 2:2 complex (human) (UniProt Q6PIF2+Q9BXU0). The description is as above.
Test [8] addresses T3, SYCE2-TEX12 core wild-type, 2:2 building block (human) (UniProt Q6PIF2+Q9BXU0). The experiment in a line: negative-stain electron microscopy; co-purified complexes at 0.005-3 mg/ml on carbon-coated grids, 2% uranyl acetate; fibres detected and measured by image analysis; both purified.
In test [9] the target is T3, SYCE2-TEX12 core wild-type, 2:2 building block (human). The experiment in a line: SEC-SAXS; co-purified complexes at >5 mg/ml on Superdex 200 Increase 10/300 GL in 20 mM Tris pH 8.0, 150 mM KCl; both purified. On the technique in general: SEC sorts molecules by how far they enter the pores of the column.

No constants are given. Whether binding was seen depends on the method and setting. Some entries that bind do so weakly or less than the wild type. For some of these results: Where a sequence is shown, tags or fusion partners need not be part of it.

B1: TEX12 core ΔCtip (amino-acids 49-113) (domain or fragment, human, UniProt Q9BXU0 49-113, looked up)
chain: KDEALEKDLNDVSKEINLMLSTYAKLLSERAAVDASYIDEIDELFKEANAIENFLIQKREFLRQR
notes: TEX12, human, core ΔCtip, residues 49-113; source: E. coli BL21 (DE3), co-expressed with SYCE2, purified (Ni-NTA, amylose, ion exchange, SEC); not shown: His6, N-terminal, cleaved
For the molecule B1, the binding result in [1], in test [2], in test [3] and in [4] was “binds” in each case.

B2: TEX12 core (amino-acids 49-123) (domain or fragment, human, UniProt Q9BXU0 49-123, looked up)
chain: KDEALEKDLNDVSKEINLMLSTYAKLLSERAAVDASYIDEIDELFKEANAIENFLIQKREFLRQRFTVIANTLHR
notes: TEX12, human, core, residues 49-123; also called TEX12 structural core; source: E. coli BL21 (DE3), co-expressed with SYCE2, purified (Ni-NTA, amylose, ion exchange, SEC); not shown: His6, N-terminal, cleaved
Regarding B2, the binding entry in test [1] was “binds”.

B3: SYCE2-TEX12 core V149E V153E V156E L160E 2:2 complex (complex, UniProt Q6PIF2 57-165; Q9BXU0 49-123)
chain 1: GLYFSSLDSSIDILQKRAQELIENINKSRQKDHALMTNFRNSLKTKVSDLTEKLEERIYQIYNDHNKIIQEKLQEFTQKMAKISHLETELKQECHSEETEYKDECLQPE
chain 2: KDEALEKDLNDVSKEINLMLSTYAKLLSERAAVDASYIDEIDELFKEANAIENFLIQKREFLRQRFTVIANTLHR
On to B3, for which, in [5], the binding entry is “no binding (tested: >1 mg/ml)”.

B4: SYCE2-TEX12 core ΔS2C MBP-fusion 2:2 complex (complex, UniProt Q6PIF2 57-154; Q9BXU0 49-123)
chain 1: GLYFSSLDSSIDILQKRAQELIENINKSRQKDHALMTNFRNSLKTKVSDLTEKLEERIYQIYNDHNKIIQEKLQEFTQKMAKISHLETELKQVCHSVE
chain 2: KDEALEKDLNDVSKEINLMLSTYAKLLSERAAVDASYIDEIDELFKEANAIENFLIQKREFLRQRFTVIANTLHR
For the molecule B4, the binding entry in test [6] is listed as “no binding (tested: >1 mg/ml)”.

B5: SYCE2-TEX12 core ΔS2C 2:2 complex (complex, UniProt Q6PIF2 57-154; Q9BXU0 49-123)
chain 1: GLYFSSLDSSIDILQKRAQELIENINKSRQKDHALMTNFRNSLKTKVSDLTEKLEERIYQIYNDHNKIIQEKLQEFTQKMAKISHLETELKQVCHSVE
chain 2: KDEALEKDLNDVSKEINLMLSTYAKLLSERAAVDASYIDEIDELFKEANAIENFLIQKREFLRQRFTVIANTLHR
For the molecule B5, the binding result in [7] is “no binding (tested: >1 mg/ml)”.

B6: SYCE2-TEX12 core wild-type, 2:2 building block (complex, human)
chain 1: GLYFSSLDSSIDILQKRAQELIENINKSRQKDHALMTNFRNSLKTKVSDLTEKLEERIYQIYNDHNKIIQEKLQEFTQKMAKISHLETELKQVCHSVETVYKDLCLQPE
chain 2: KDEALEKDLNDVSKEINLMLSTYAKLLSERAAVDASYIDEIDELFKEANAIENFLIQKREFLRQRFTVIANTLHR
notes: SYCE2, human, core, residues 57-165; TEX12, human, core, residues 49-123; in solution it is found as 4:4 complex and larger assemblies, which are the rows of this molecule with itself; also called core complex; wild-type core; source: E. coli BL21 (DE3), co-expressed, purified (Ni-NTA, amylose, ion exchange, SEC); not shown: MBP, N-terminal, cleaved; His6, N-terminal, cleaved; copies: 2 + 2
Consider B6, for which the binding result in test [8] and in test [9] was “binds” in each case.

The record behind these values is publication PMC7612376, “Structural basis of meiotic chromosome synaptic elongation through hierarchical fibrous assembly of SYCE2-TEX12” (Nature structural & molecular biology, 2021).
